{"source": "paper PMC4336329", "about": "(PLoS ONE, 2015)", "note": "About 2,200 (0.71%) of roughly 310,000 compounds showed an effect of 50% or more. The effect is printed as a negative number. The list shows a part of the results.", "data": [{"biological_target": "human ether-à-go-go-related gene (hERG) potassium channel (human, UniProt Q12809)", "sequence (Q12809 whole entry, looked up)": "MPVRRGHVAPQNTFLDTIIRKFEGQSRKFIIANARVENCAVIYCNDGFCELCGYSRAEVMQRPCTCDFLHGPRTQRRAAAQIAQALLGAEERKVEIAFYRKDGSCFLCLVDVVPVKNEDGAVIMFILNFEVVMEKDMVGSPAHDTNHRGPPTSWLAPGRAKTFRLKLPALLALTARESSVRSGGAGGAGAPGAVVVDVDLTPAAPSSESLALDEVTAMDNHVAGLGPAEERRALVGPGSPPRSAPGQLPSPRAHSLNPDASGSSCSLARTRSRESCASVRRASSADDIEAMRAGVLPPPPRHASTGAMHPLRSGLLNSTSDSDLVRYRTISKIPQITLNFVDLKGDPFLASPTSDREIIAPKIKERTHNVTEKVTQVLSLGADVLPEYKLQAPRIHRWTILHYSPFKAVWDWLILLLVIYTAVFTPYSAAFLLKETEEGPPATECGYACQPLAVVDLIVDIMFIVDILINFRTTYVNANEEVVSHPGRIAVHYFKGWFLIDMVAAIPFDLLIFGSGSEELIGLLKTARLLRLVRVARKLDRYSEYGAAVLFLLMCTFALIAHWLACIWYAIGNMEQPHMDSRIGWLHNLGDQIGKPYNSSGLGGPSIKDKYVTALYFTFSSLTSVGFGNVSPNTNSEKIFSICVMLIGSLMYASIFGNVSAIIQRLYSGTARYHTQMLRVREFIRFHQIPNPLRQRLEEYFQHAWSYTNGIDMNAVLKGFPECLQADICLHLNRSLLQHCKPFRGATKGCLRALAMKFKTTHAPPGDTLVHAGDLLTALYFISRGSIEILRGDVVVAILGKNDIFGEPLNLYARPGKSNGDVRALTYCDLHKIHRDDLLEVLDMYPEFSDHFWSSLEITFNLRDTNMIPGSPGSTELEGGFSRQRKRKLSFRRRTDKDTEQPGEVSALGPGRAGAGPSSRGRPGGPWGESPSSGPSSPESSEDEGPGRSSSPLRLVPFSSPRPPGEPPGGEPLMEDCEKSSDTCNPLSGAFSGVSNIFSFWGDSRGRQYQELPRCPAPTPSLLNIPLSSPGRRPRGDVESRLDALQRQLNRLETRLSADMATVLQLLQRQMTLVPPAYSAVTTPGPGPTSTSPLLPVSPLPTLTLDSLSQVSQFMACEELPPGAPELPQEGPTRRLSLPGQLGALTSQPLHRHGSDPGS", "experiment": "primary screen, population patch clamp on CHO cells stably expressing hERG", "units": {"hERG current change (%, negative = inhibition) at 1uM": "%"}, "values": [{"smiles": "Cc1cccc(NC(=O)c2cccc(C(=O)Nc3cccc(C)c3)n2)c1", "hERG current change (%, negative = inhibition) at 1uM": 10.4}, {"smiles": "CC(C)Cn1c(N)c(C(=O)COC(=O)c2cc(F)cc(F)c2)c(=O)n(C)c1=O", "hERG current change (%, negative = inhibition) at 1uM": -1.94}, {"smiles": "COCCn1c(SCC(=O)N2CC(=O)Nc3ccccc32)nc2ccccc21", "hERG current change (%, negative = inhibition) at 1uM": 5.88}, {"smiles": "CSc1nsc(SC)c1NC(=O)N1CCCC1", "hERG current change (%, negative = inhibition) at 1uM": -4.85}, {"smiles": "CCOC(=O)c1c(NC(=S)NC(=O)c2ccc(Cn3cc(Cl)cn3)o2)sc2c1CCCCC2", "hERG current change (%, negative = inhibition) at 1uM": 12.8}, {"smiles": "Oc1ccc(/C=N/NC(=S)NCC2CCCO2)cc1", "note": "(stereo not drawn)", "hERG current change (%, negative = inhibition) at 1uM": 7.36}, {"smiles": "Cc1ccc(Cl)cc1NC(=O)CN1C(=O)COc2ccc(S(=O)(=O)N3CCOCC3)cc21", "hERG current change (%, negative = inhibition) at 1uM": 13.5}, {"smiles": "CN(Cc1ccccc1NS(=O)(=O)c1ccc(Cl)cc1)C1CCCCC1.Cl", "hERG current change (%, negative = inhibition) at 1uM": -1.68}, {"smiles": "CCCN(CCC)C(=O)Nc1cc(Cl)ccc1OC", "hERG current change (%, negative = inhibition) at 1uM": 14.4}, {"smiles": "CCCS(=O)(=O)c1c(S(=O)(=O)CCC)c2c(C)cccn2c1C(=O)OC", "hERG current change (%, negative = inhibition) at 1uM": 15.1}, {"smiles": "COc1cccc(CNC(=O)CCC2CCCN(c3cc(C)nc(N(C)C)n3)C2)c1", "note": "(stereo not drawn)", "hERG current change (%, negative = inhibition) at 1uM": -27.7}, {"smiles": "CCc1ccc(S(=O)(=O)Nc2c(C)nn(C)c2C)cc1", "hERG current change (%, negative = inhibition) at 1uM": 8.06}, {"smiles": "NC(=O)C1CC(=O)N(c2ccc(OCc3c(F)cccc3Cl)cc2)C1", "note": "(stereo not drawn)", "hERG current change (%, negative = inhibition) at 1uM": 9.68}, {"smiles": "CC(C)(C)[C@H]1C=C(C(=O)O)O[C@@H](OCc2ccc(CO)cc2)C1", "hERG current change (%, negative = inhibition) at 1uM": 19.2}, {"smiles": "Cc1cc(C(=O)NCc2ccccc2F)cs1", "hERG current change (%, negative = inhibition) at 1uM": -1.56}, {"smiles": "Cc1c(Cl)cccc1-c1ccc(/C=N/n2cnnc2)o1", "hERG current change (%, negative = inhibition) at 1uM": -9.8}, {"smiles": "COc1ccccc1C1/C(=C(/O)c2ccccc2)C(=O)C(=O)N1CC(C)O", "note": "(stereo not drawn)", "hERG current change (%, negative = inhibition) at 1uM": 12.9}, {"smiles": "Clc1ccc2nc(CSc3ncn[nH]3)cn2c1", "hERG current change (%, negative = inhibition) at 1uM": 3.81}, {"smiles": "O=C(COC(=O)c1ccc(Cl)nc1)NNC(=O)c1ccc(Cl)cc1", "hERG current change (%, negative = inhibition) at 1uM": 14.8}, {"smiles": "CC(=O)Nc1cc([N+](=O)[O-])ccc1N1CCOCC1", "hERG current change (%, negative = inhibition) at 1uM": 6.81}, {"smiles": "CC(C)=CCc1cc(-c2oc3cc(O)cc(O)c3c(=O)c2O)ccc1O", "hERG current change (%, negative = inhibition) at 1uM": 9.77}, {"smiles": "COCCN1CCN(C(=O)C2CCC(=O)N(Cc3ccccc3OC)C2)CC1", "note": "(stereo not drawn)", "hERG current change (%, negative = inhibition) at 1uM": 11.4}, {"smiles": "O=C(CSc1nc(=O)n(CCCN2CCOCC2)c2c1CCCC2)Nc1ccc(F)cc1", "hERG current change (%, negative = inhibition) at 1uM": -5.41}, {"smiles": "O=[N+]([O-])c1ccc(Cc2nnc(-c3ccc(F)cc3)o2)cc1", "hERG current change (%, negative = inhibition) at 1uM": -22.1}, {"smiles": "O=c1[nH]c(CN2CCN(S(=O)(=O)/C=C/c3ccccc3)CC2)nc2cc(Cl)ccc12", "hERG current change (%, negative = inhibition) at 1uM": -21.4}, {"smiles": "CCOc1ccc(-n2c(=O)c3ccccc3c3ccccc3c2=O)cc1", "hERG current change (%, negative = inhibition) at 1uM": 11.8}, {"smiles": "CCCc1cc(=O)oc2cc(OC(C)C(=O)NCC3CCC(C(=O)O)CC3)c(Cl)cc12", "note": "(stereo not drawn)", "hERG current change (%, negative = inhibition) at 1uM": 11}, {"smiles": "Cc1ccnc(NC(=O)CCNC(=O)c2ccccc2Cl)c1", "hERG current change (%, negative = inhibition) at 1uM": 6.85}, {"smiles": "C=CCNc1ncnc2c1cnn2-c1ccc(C)cc1C", "hERG current change (%, negative = inhibition) at 1uM": 10.8}, {"smiles": "CCOc1ncccc1C(=O)OCC(=O)c1cc(C)n(Cc2ccco2)c1C", "hERG current change (%, negative = inhibition) at 1uM": 5.04}, {"smiles": "CCCCNc1ncnc2c1cnn2-c1ccc(Cl)cc1", "hERG current change (%, negative = inhibition) at 1uM": 14.5}, {"smiles": "CC(C)c1nc(C(=O)N2CCCC(N3CCN(c4cccc(Cl)c4)CC3)C2)cs1", "note": "(stereo not drawn)", "hERG current change (%, negative = inhibition) at 1uM": -15.5}, {"smiles": "CC1CCN(C(=O)C2CCN(c3ncnc4c3nc3n4CCCCC3)CC2)CC1", "hERG current change (%, negative = inhibition) at 1uM": 7.03}, {"smiles": "CCCCN(C(=O)c1cc2ccccc2o1)c1c(N)n(CCCC)c(=O)[nH]c1=O", "hERG current change (%, negative = inhibition) at 1uM": 13.4}, {"smiles": "C[C@@H]1C=C(C(=O)N2CCN(Cc3ccc4c(c3)OCO4)CC2)O[C@H](OCCCCO)C1", "hERG current change (%, negative = inhibition) at 1uM": 9.81}, {"smiles": "COC(=O)C(NS(=O)(=O)c1ccccc1Br)C(C)C", "note": "(stereo not drawn)", "hERG current change (%, negative = inhibition) at 1uM": 8.86}, {"smiles": "Cc1ccc(CNC(=O)C(=O)NCC2CCCO2)cc1", "note": "(stereo not drawn)", "hERG current change (%, negative = inhibition) at 1uM": 10.8}, {"smiles": "CC(=O)NC1=NN(C(C)=O)C(c2cccs2)S1", "note": "(stereo not drawn)", "hERG current change (%, negative = inhibition) at 1uM": 20.3}, {"smiles": "O=C(NCc1n[nH]c(=S)n1-c1ccccc1Cl)c1ccc(S(=O)(=O)N2CCCCC2)cc1", "hERG current change (%, negative = inhibition) at 1uM": 15.4}, {"smiles": "O=C(CBr)N1CCc2ccccc2C(c2ccccc2)C1", "note": "(stereo not drawn)", "hERG current change (%, negative = inhibition) at 1uM": 11.7}, {"smiles": "COc1ccc(C2/C(=C(/O)c3ccc4c(c3)CC(C)O4)C(=O)C(=O)N2Cc2ccncc2)cc1", "note": "(stereo not drawn)", "hERG current change (%, negative = inhibition) at 1uM": 16}, {"smiles": "O=CC(Cl)P(=O)(N1CCOCC1)N1CCOCC1", "note": "(stereo not drawn)", "hERG current change (%, negative = inhibition) at 1uM": 10}, {"smiles": "CCN(CC)C(=O)c1ccc(-c2cccs2)s1", "hERG current change (%, negative = inhibition) at 1uM": 14}, {"smiles": "O=c1c2nccnc2[nH]c(=S)n1Cc1ccccc1", "hERG current change (%, negative = inhibition) at 1uM": 0.392}, {"smiles": "C/C(N)=C(/C#N)C(=O)CSc1n[nH]c(-c2ccccc2Br)n1", "hERG current change (%, negative = inhibition) at 1uM": 7.91}]}]}
